Test results as given in patent publication US20120034164A1, “TRUNCATED CAR PEPTIDES AND METHODS AND COMPOSITIONS USING TRUNCATED CAR PEPTIDES” (Sanford-Burnham Medical Research Institute California, priority 2010, published 2012).

Tested on: SU5416/hypoxia/normoxia-exposed rats with PAH

**Q.** What does the source list for `O=S(=O)(c1cccc2cnccc12)N1CCCNCC1` [Fasudil, fasudil]?
**A.** pulmonary-specific blood pressure effect (10 mg/kg of fasudil 30 minutes after cessation of tCAR infusion): still resulted in a sustained, pulmonary-specific effect; RVSP (Table 4, fasudil 10 mg/kg after cessation of CARK (tCAR) infusion, baseline 84.6): 27.2 mmHg; LVSP (Table 4, fasudil 10 mg/kg after cessation of CARK (tCAR) infusion, baseline 140.6): 107.7 mmHg
